In publication PMC2836968 (Molecular Biology of the Cell, 2010):

B1: Aha1 D293A (natural protein)
chain: not shown
B2: Aha1 E67K (natural protein)
chain: not shown
B3: Aha1 E221A (natural protein)
chain: not shown

Columns and labels:
human Hsp90β [1] = molecular target: T1, human Hsp90β (human, UniProt P08238); assay: SPR
human Hsp90β [2] = molecular target: T1, human Hsp90β; assay: SPR; remark: listed apart in the source
T1 sequence (P08238 whole entry): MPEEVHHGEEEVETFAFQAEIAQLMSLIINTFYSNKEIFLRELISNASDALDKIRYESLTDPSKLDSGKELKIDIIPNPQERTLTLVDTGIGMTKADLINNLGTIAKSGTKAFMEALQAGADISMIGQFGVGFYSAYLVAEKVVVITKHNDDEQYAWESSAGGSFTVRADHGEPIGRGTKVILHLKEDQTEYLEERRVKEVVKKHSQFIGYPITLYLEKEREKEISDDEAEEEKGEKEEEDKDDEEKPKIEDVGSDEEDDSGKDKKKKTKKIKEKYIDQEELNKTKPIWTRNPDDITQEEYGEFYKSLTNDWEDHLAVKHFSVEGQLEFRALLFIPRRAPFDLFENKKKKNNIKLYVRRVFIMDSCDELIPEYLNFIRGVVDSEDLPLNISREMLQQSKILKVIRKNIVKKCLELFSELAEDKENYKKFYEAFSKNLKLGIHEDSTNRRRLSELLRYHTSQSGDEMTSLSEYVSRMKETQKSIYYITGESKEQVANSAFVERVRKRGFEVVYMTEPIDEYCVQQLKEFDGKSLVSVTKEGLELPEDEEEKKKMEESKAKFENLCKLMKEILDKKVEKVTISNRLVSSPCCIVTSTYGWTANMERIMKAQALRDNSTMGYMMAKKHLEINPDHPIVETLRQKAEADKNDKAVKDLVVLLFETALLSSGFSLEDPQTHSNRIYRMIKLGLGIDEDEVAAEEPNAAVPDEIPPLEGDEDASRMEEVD

Row | Binder | Kd (human Hsp90β [1]) [nM] | fold slower association rate than WT (human Hsp90β [2]) [fold]
1 | B1 | 440 | 
2 | B2 |  | ≥ 15
3 | B3 | 890 | 
